The values that follow come from PubChem BioAssay AID463173 (ICCB-Longwood Screening Facility, Harvard Medical School, 2010).

The whole screen tested about 52,000 compounds, of which about 1,700 (3.3%) were called active. Rule as the data show it: active = survival mostly below about 52% (no sharp cut-off); inactive = mostly above about 56%. The list shows a part of the results.

The experiment deals with Wild type. As to the kind of experiment: growth inhibition of S. aureus wild type versus tarO mutant, primary screen, teichoic acid synthesis inhibitors, RN4220, OD600 (AID 463173). The settings on record: S. aureus RN4220 wild type/DeltatarO growth, OD600, 18 h, stronger effect = lower value, screened at 18.75 µg/mL (by protocol).
For the molecule `CCOC(=O)c1cc(-c2ccccc2)n(CC(=O)NC2CCC(C)CC2)c1C` (stereo unspecified), the survival was inactive: 81%.

Take `COc1ccc(-c2noc(CSc3nnc(Cc4ccccc4)n3-c3ccccc3)n2)cc1OC`: the survival was inactive: 109%.

Take `Nc1cccc(C(=O)NC23CC4CC(CC(C4)C2)C3)c1`: the survival was inactive: 95%.

On to `CC1(C)CC(NC(=O)CCc2ccccc2)CC(C)(C)N1`, for which the survival is inactive: 112%.

Consider `O=C(NCCc1csc(-c2ccc(F)cc2)n1)c1cccs1`, for which the survival was inactive: 59%.

Take `O=C(NC1CC(=O)N(c2ccc3c(c2)OCCO3)C1)c1c(F)cccc1Cl` (stereo unspecified): the survival is inactive: 120%.

Turning to `Cc1ccc2c(c1)c(=O)c(C(=O)c1ccc3c(c1)OCO3)cn2Cc1cccc(F)c1`, the survival was inactive: 87%.

Regarding `COCCNc1oc(-c2ccc(COc3ccc(OC)cc3)o2)nc1C#N`, the survival is inactive: 90%.

Regarding `Cc1ccc(-c2nn(-c3ccc(F)cc3F)c3c2cnc2c(F)cccc23)cc1`, the survival was inactive: 89%.

Regarding `Cc1ccc(NC(=O)CSc2nc3ccccc3c3nc(CCc4c(C)n[nH]c4C)nn23)c(C)c1`, the survival is inactive: 78%.

In the case of `Cc1nc2c(C(=O)O)cnn2c(C)c1Cc1ccccc1`, the survival was inactive: 68%.

For the molecule `Cc1ccccc1C(=O)Nc1nc2nc(C)c(C)c(=O)n2[nH]1`, the survival is inactive: 89%.

In the case of `CCCc1nn2c(=O)cc(COC(=O)c3ccc(NC(=O)CCc4ccccc4)cc3)nc2s1`, the survival is inactive: 69%.

Regarding `CCc1ccc2oc(-c3cccc(NC(=O)c4cc5ccccc5o4)c3)nc2c1`, the survival is inactive: 28%.

As to `Cc1ccc(C(=O)CSc2ncc3c(n2)-c2ccccc2N(Cc2ccc(Cl)cc2)S3(=O)=O)cc1`, the survival is inactive: 82%.

Turning to `Cc1ccc2nc(N3CCN(c4cccc(Cl)c4)CC3)c3nnnn3c2c1`, the survival is inactive: 72%.

On to `CCCCOc1ccc(CNC(=O)c2ccc(-c3nc(CN4CCc5ccccc54)c(C)o3)cc2)cc1`, for which the survival was inactive: 73%.

As for `COc1cccc(NC(=O)c2sc3nc4n(c(=O)c3c2C)CCC4)c1`, the survival was inactive: 81%.

Regarding `COc1ccc2[nH]c(=O)c(CN(Cc3ccco3)C(c3nnnn3Cc3ccccc3)C(C)C)cc2c1` (stereo unspecified), the survival was inactive: 111%.

Consider `CC1=C(C(N)=O)C(c2ccc(C)cc2)n2nc(SCc3ccccc3F)nc2N1` (stereo unspecified), for which the survival is inactive: 73%.

As for `CC(=O)N1N=C(N)SC1(C)c1ccccc1` (stereo unspecified), the survival was inactive: 101%.

In the case of `CCOC(=O)c1cccc(NC(=O)c2cc(S(=O)(=O)N3CCCC(C)C3)cn2C)c1` (stereo unspecified), the survival was inactive: 75%.

Take `CCN(CC)c1ccc(C=C2C(=O)OC3(CCCC3)OC2=O)cc1`: the survival was inactive: 105%.

Regarding `CCN(CC)C(=O)N1CCc2cc(OC)c(OC)cc2C1c1cc2cc(C)ccc2n(C(=O)N(CC)CC)c1=O` (stereo unspecified), the survival is inactive: 99%.

Turning to `CC(=O)Nc1ccccc1-c1nc2ccccc2n(CC(=O)c2ccc(Br)cc2)c1=O`, the survival was inactive: 85%.

`Cc1cc(C)cc(NC2=C(c3ccccc3)C(=O)c3ccccc32)c1`: the survival is inactive: 39%.

Regarding `COc1cccc(CNC(=O)CSc2nnc(C)c3c(C)n(-c4ccccc4)nc23)c1OC`, the survival was inactive: 75%.

Consider `COc1cc(C2C(=O)N(C3CCCCC3)CC(=O)N2CCC2=CCCCC2)ccc1OC(C)C` (stereo unspecified), for which the survival was inactive: 135%.

For the molecule `CCOC(=O)C1CCCN(C(=O)Cn2ncc3c(C)n(Cc4ccccc4F)c(C)c3c2=O)C1` (stereo unspecified), the survival is inactive: 122%.

As to `COc1cccc(-n2cc(C(=O)Nc3cc(OC)c(OC)c(OC)c3)c3ccccc3c2=O)c1`, the survival was inactive: 114%.

On to `COC(=O)CNC(c1ccccc1)c1cc(Br)ccc1NC(=O)c1ccccc1` (stereo unspecified), for which the survival was inactive: 62%.

`COc1ccc(-c2cc(C(F)(F)F)nc(SCC(=O)N3CCCCC3C)n2)cc1OC` (stereo unspecified): the survival is inactive: 69%.

In the case of `CCc1cccc(C)c1NC(=O)C1CCN(c2nn3c(=O)cc(C)nc3s2)CC1`, the survival is inactive: 118%.

For `CCN1CCN(c2ccc(NC(=O)c3cccc(Cl)c3Cl)cc2)CC1`, the survival was inactive: 111%.

As for `C/C(=N\NC(N)=O)C1CC(c2ccccc2)C(=O)O1` (stereo unspecified), the survival is inactive: 83%.

Consider `Cc1ccc2oc(=O)c3cc(C(=O)Nc4ccccc4C(N)=O)sc3c2c1`, for which the survival was inactive: 88%.

For `O=C(NCc1ccccc1)C1CCCN(c2ncccn2)C1` (stereo unspecified), the survival is inactive: 104%.

Consider `Cc1onc(-c2c(F)cccc2Cl)c1C(=O)Nc1ccc(OC(C)C)cc1`, for which the survival is inactive: 76%.

In the case of `COc1ccc(S(=O)(=O)c2c(O)c3ccc(C(=O)NCc4ccccc4)cc3[nH]c2=O)cc1`, the survival was inactive: 94%.

Regarding `CCOCCCn1c(=N)c(C(=O)NCc2cccnc2)cc2c(=O)n3cc(C)ccc3nc21`, the survival was inactive: 75%.

On to `CCOC(=O)c1cnc2c(ccc3ccccc32)c1Nc1ccc(OCC)cc1`, for which the survival is active: -2%.

As to `O=C1CCCc2cc(S(=O)(=O)NCC3CCC(C(=O)NCc4ccccc4Cl)CC3)ccc2N1` (stereo unspecified), the survival is inactive: 68%.

Regarding `COc1ccc(CCNC(=O)c2cc3c(s2)-c2ccccc2OC3)cc1OC`, the survival is inactive: 83%.

For `Fc1ccc(N2CCN(c3ncnc4c3nc3n4CCCCC3)CC2)cc1`, the survival was inactive: 55%.

With `Cc1cccc(NC(=O)Nc2ccc(Br)cc2)n1`, the survival was inactive: 134%.

For the molecule `COc1ccccc1N1CCN(C(=O)c2c(C)oc3ncn(CC(C)C)c(=O)c23)CC1`, the survival is inactive: 60%.

Take `O=C(Cn1ccc2ccccc2c1=O)NCCC(=O)Nc1ccc(F)cc1F`: the survival was inactive: 64%.

For the molecule `COCCOC(=O)C1=C(C)NC(=S)NC1c1ccc(C)c(OC)c1` (stereo unspecified), the survival was inactive: 97%.

For the molecule `CCOc1ccc(Nc2cc(C)nc3nc(Cc4ccc(Cl)cc4)nn23)cc1`, the survival is inactive: 83%.

Regarding `Cc1ccc(-n2nc3c(N4CCC(C(=O)NC(C)c5ccccc5)CC4)nnc(C)c3c2C)cc1` (stereo unspecified), the survival is inactive: 153%.

Turning to `NC(=S)Cc1c[nH]c2ccccc12`, the survival was inactive: 99%.

On to `COc1ccc(CCNC(=O)Cn2c(=O)c3cccn3c3ccc(F)cc32)c(OC)c1`, for which the survival was inactive: 88%.

For `O=C(Nc1ccc2c(c1)oc1ccccc12)C(F)(F)F`, the survival was inactive: 103%.

For `CC(=O)Nc1ccc(Nc2nc3c(S(=O)(=O)c4cccc(Cl)c4)nnn3c3ccsc23)cc1`, the survival was inactive: 89%.

In the case of `Cc1ccc(C)c(-c2nnc(NC(=O)c3ccc4c(c3)OCCO4)o2)c1`, the survival is inactive: 80%.

As to `CCN(CC)Cc1c(NC(=O)c2ccc(OC)cc2)sc2c1CCCC2`, the survival is inactive: 66%.

For `CCCC(=O)N1CCCC(c2nc(-c3cccs3)no2)C1` (stereo unspecified), the survival was inactive: 118%.

As to `Cc1ccc(NC(=O)CN2C(=O)CCc3cc(S(=O)(=O)N4CCCCC4)ccc32)cc1C`, the survival was inactive: 118%.

For `Cc1cc(C)cc(-n2c(C)nc3cc(C(=O)NCc4ccccc4Cl)ccc32)c1`, the survival is inactive: 99%.

For the molecule `COc1ccc(CCNC(=O)c2cnc3sc(N4CCCCC4)nn3c2=O)cc1OC`, the survival is inactive: 77%.

On to `Cc1oc2ncn(CC(C)C)c(=O)c2c1C(=O)NCCCN1CCC(C)CC1`, for which the survival was inactive: 111%.

On to `O=C(COc1ccccc1F)OCc1cc(=O)n2nc(C3CC3)sc2n1`, for which the survival is inactive: 66%.

Take `COc1ccc(-c2cc(C(=O)Oc3cccc(C)c3)c3cc(C)ccc3n2)cc1`: the survival is inactive: 19%.

Regarding `Cc1ccc2c(c1)N(CC(=O)N1CCCCC1C)C(=O)CO2` (stereo unspecified), the survival is inactive: 98%.

For the molecule `CCOC(=O)c1c(N)sc2c(OC)c(Br)ccc12`, the survival was inactive: 100%.

As to `CCCn1c(=O)c2c(nc3n2CCN3c2ccc(C)cc2)n(C)c1=O`, the survival is inactive: 89%.

Turning to `COc1cccc2cc(C(=O)Nc3ccc(N4CCNCC4)cc3)c(=O)oc12`, the survival is inactive: 110%.

Turning to `Cc1ccc(NC(=O)c2cc3c(=O)n(Cc4ccco4)ccc3nc2C)cc1C`, the survival was inactive: 65%.

Take `Cc1ccc(CN(C(=O)COc2ccc(Cl)cc2C)C2CCS(=O)(=O)C2)o1` (stereo unspecified): the survival was inactive: 86%.

In the case of `CCOC(=O)c1c(NC(=O)c2cc(CC(C)C)on2)sc(C(C)=O)c1C`, the survival was inactive: 94%.

With `O=C(COC(=O)c1ccccn1)Nc1ccccc1`, the survival is inactive: 89%.

In the case of `Cc1nc2sc(C(=O)N(C)c3ccccc3)c(NC(=O)c3ccccc3Cl)c2c(C)c1C`, the survival was inactive: 72%.

With `COC(=O)c1cn(C(C)C(=O)NCc2ccco2)c2ccccc12` (stereo unspecified), the survival is inactive: 89%.

Turning to `CSc1ccc(C2c3c(oc4cc(C)cc(C)c4c3=O)C(=O)N2CCO)cc1` (stereo unspecified), the survival is inactive: 80%.

`COc1ccc(C2C(C(=O)Nc3ccccc3OC)=C(C)Nc3c(C(=O)Nc4ccccc4)cnn32)c(OC)c1` (stereo unspecified): the survival was inactive: 159%.

On to `Cc1ccc(NC(=O)c2c(C)oc3ccc(O)c(CN4CCOCC4)c23)c(C)c1`, for which the survival is inactive: 87%.

Take `CCOc1ccc(NC(=O)N(Cc2c[nH]c3ccccc23)C2CCCCCC2)cc1`: the survival was inactive: 83%.

Regarding `COc1cn(CC(=O)Nc2ccccc2)c(CN2CCCCC2)cc1=O`, the survival is inactive: 74%.

Take `COc1ccc(CCNC(=O)CNCC2CCCO2)cc1OC` (stereo unspecified): the survival was inactive: 98%.

Consider `Cc1ccc(OCC(=O)N(Cc2ccco2)Cc2ccco2)cc1C`, for which the survival was inactive: 78%.

In the case of `CC(C)CCNC(=O)CCn1c(=O)c2cccn2c2cccnc21`, the survival is inactive: 88%.

Regarding `COc1ccc(CCNC(=O)Cn2cc(S(=O)(=O)Cc3ccccc3Cl)c3ccccc32)cc1OC`, the survival is inactive: 69%.

For the molecule `O=C(CSc1nnc(-c2ccccc2F)o1)Nc1ccccc1Cl`, the survival was inactive: 113%.

With `CCSc1nnc2c(n1)OC(c1ccc(C)s1)Nc1ccccc1-2` (stereo unspecified), the survival is inactive: 62%.

For the molecule `CCOc1ccccc1NC(=O)CSc1ncc(S(=O)(=O)c2ccc(C)c(C)c2)c(N)n1`, the survival was inactive: 124%.

Consider `O=C(Nc1ccccc1C(=O)NC1CCCC1)NC1CCCC1`, for which the survival is inactive: 105%.

With `COc1ccc(CN(Cc2ccco2)C(=O)c2cc3ccccc3oc2=O)c(OC)c1`, the survival was inactive: 105%.

Take `Cc1ccccc1C(=O)N1CCC(C(=O)NC2CCCCCC2)CC1`: the survival is inactive: 100%.

As for `O=C(CSc1nnc(-c2ccc(S(=O)(=O)N3CCOCC3)cc2)o1)c1c[nH]c2ccccc12`, the survival is inactive: 107%.

For the molecule `COc1ccc(-c2noc(-c3ccc(NCC4CCCO4)c([N+](=O)[O-])c3)n2)cc1` (stereo unspecified), the survival was inactive: 83%.

With `CNC(=O)c1c(NC(=O)Cc2coc3ccc(C)cc23)sc2c1CCCC2`, the survival is inactive: 67%.
